Measured values: the RNAGym collection of RNA variant scans (doi:10.1073/pnas.2313332121)
This sample is rich in variants without activity.

B1: TPR 5TU (parent)
chain: GGAUCUUCUCGAUCUAACAAAAAAGACAAAUCUGCCACAAAGCUUGAGAGCAUCUUCGGAUGCAGAGGCGGCAGCCUUCGGUGGCGCGAUAGCGCCAACGUUCUCAACUAUGACACGCAAAACGCGUGCUCCGUUGAAUGGAGUUUAUCAUG

Variants of: B1
Assay: polymerase ribozyme fitness, log enrichment relative to wild type (log ratio); higher = more active; in vitro selection for triplet polymerase activity
Summary of the method: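 Fitness measures genotype enrichment against wild-type enrichment on a logarithmic scale, with inverse-variance-weighted averaging of replicates. The logarithm is base 2, and genotypes were kept only with ≥10 input reads and ≥1 read per output in Illumina sequencing. The sequenced libraries came from one triplicate in vitro selection round, including frozen incubation at −7 °C, of PCR-built, transcribed mutant libraries of each subunit of a heterodimeric triplet polymerase ribozyme.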

Variant | polymerase ribozyme fitness (log ratio)
C5U C85U C108G G143A A150G | ≤ -4.2
C5U C87A G100C C131G | ≤ -4.2
C5U C93G | -3.16
C5U C105U A138U | ≤ -4.2
C5U G11A U55A G81A C87A C116G U139A A150G | ≤ -4.2
C5U G25C C43G G65U C87A C95U | ≤ -4.2
C5U G46A U61G | -4.13
C5U G50A A150G | ≤ -4.2
C5U G50A G68A G71U U77A C87U G143A | ≤ -4.2
C5U G50C A60U G74C G133C | ≤ -4.2
C5U G50C C76U C87A U90G G126U | ≤ -4.2
C5U U6C G11C G68C U90C C96U C99U C114G A120C A121C | ≤ -4.2
C5U U6G A30C A47C G58A G59A C79U G92A | ≤ -4.2
C5U U6G G50U G58U C79A C93G | ≤ -4.2
C5U U9C G84U C116G C123G G133U | ≤ -4.2
C5U U13A A17C C27G A28U A52C C85U A113C U127A U144G | ≤ -4.2
C5U U13A A19U A21C C85A A106U U127G | ≤ -4.2
C5U U31A A52C A91C C105G G133U U144A | ≤ -4.2
C5U U33C U53C G80A G92U C108U A122G | ≤ -4.2
C5U U45A A47C G62U C69U | ≤ -4.2
C5U U45A A66C C69G C87U | ≤ -4.2
C5U U45A U56A G80C U102G A119U | ≤ -4.2
C5U U53A C63A C85U C93G C132U | ≤ -4.2
C5U U53A C75U C85G C131U G140U | ≤ -4.2

Variant | polymerase ribozyme fitness (log ratio)
C5U U56A C57A C85G | -0.724
U6A A12C A22C C36A G48A G50C A91G C96U C99G G117C C149U | ≤ -4.2
U6A A12G A17C G25C U55G A89G | -3.61
U6A A12G A28U U31C C36U C76G C95U | ≤ -4.2
U6A A12U G42C U82A G84A A119G G143A | ≤ -4.2
U6A A16G C108G C114A | ≤ -4.2
U6A A16U G59A U77A A89U A113U G124A | ≤ -4.2
U6A A17G A22C C32G G59A G67U C129U G136A G143A | ≤ -4.2
U6A A17U A66U | ≤ -4.2
U6A A19C A39U A52G C76U C85G A115U | ≤ -4.2
U6A A19G C38G U61A G94C C103G | ≤ -4.2
U6A A19G C57A C72U A115C A122U G124A | ≤ -4.2
U6A A20C A28C C36U C54G | ≤ -4.2
U6A A20G U56A G88U U102A C103G C132A U146G | ≤ -4.2
U6A A20U C27U G46A C87A | ≤ -4.2
U6A A21C A41G A66C C75U C87U C95A U145G | ≤ -4.2
U6A A21U A39C A60G C75A A97G U101A U134G | ≤ -4.2
U6A A21U U31A G74A | ≤ -4.2
U6A A22G U77A C116U C131U U145C | ≤ -4.2
U6A A23U C38U C85G C95G C99G | ≤ -4.2
U6A A23U G59A U78G G81C C93U A97G U102A A115U G152U | ≤ -4.2
U6A A28C G48A A64C C69U U109G A138C | ≤ -4.2
U6A A28C U31A A41U C51A C57G G59U G80A C103U | ≤ -4.2
U6A A28C U44A U45A A49U C85G U144A | ≤ -4.2

Variant | polymerase ribozyme fitness (log ratio)
U6A A28G A73G C93G C99A C131A | -4.19
U6A A29G C51U C54A U56G C85U C118G | ≤ -4.2
U6A A29U G81A G92C C114U | ≤ -4.2
U6A A30G G46A A47G A60G A66G G86U C125U | ≤ -4.2
U6A A30U G42A G48C U56A G83U C105U G136U | ≤ -4.2
U6A A37G A64U C79A | ≤ -4.2
U6A A37U C85U C118U C149A | ≤ -4.2
U6A A39G C85G A113G C118G U130G | ≤ -4.2
U6A A39G U61C G83C C85U C103A | ≤ -4.2
U6A A40U C57G G59A C76G A98G | ≤ -4.2
U6A A41G U44G C75A G92A U102A U148C | ≤ -4.2
U6A A52G G58A G71A C85G G126U U135G | ≤ -4.2
U6A A60C A142G | -3.03
U6A A60G C76A U144C | -0.452
U6A A91C | ≤ -4.2
U6A A137C U148A | ≤ -4.2
U6A C8G A12U A30C A47G G86U C105U | ≤ -4.2
U6A C10A A41C U56A G62U G84A G133U | ≤ -4.2
U6A C10G A23U C32G A39U G48C G92U U146A | ≤ -4.2
U6A C14A A40U G84U C95U A115C U139C G141U | ≤ -4.2
U6A C14G A20G U78C C96G U139A | ≤ -4.2
U6A C14G G34A C87U C105U U145G | -4.05
U6A C14U G65U A91G U148A | ≤ -4.2
U6A C14U U82C G86A | -4.09

Variant | polymerase ribozyme fitness (log ratio)
U6A C18A A21U U56G G68A A91U G128C U139A G143A | ≤ -4.2
U6A C18U A20C A22C U44C U55A C87A | ≤ -4.2
U6A C18U G50C A52U G86A C87U G88A U111G A150G | ≤ -4.2
U6A C18U U45G U82A C95A C123G A150G | ≤ -4.2
U6A C27A G68A C75G C95A G100A | ≤ -4.2
U6A C27G A41U C54U G84A C103U | ≤ -4.2
U6A C27G C36G U53G C93A U104G | ≤ -4.2
U6A C27U U44G G48A U78A G81C G86A G140A G143C | ≤ -4.2
U6A C32A A89U A91C G124U A150G | ≤ -4.2
U6A C32G A52U G86U U102G | ≤ -4.2
U6A C35G C36A G84U G141A A142G U151G | ≤ -4.2
U6A C38U U61A U82C G86A G126A | ≤ -4.2
U6A C51A C57U C76U C93A C123U C132G | ≤ -4.2
U6A C51G C54A G80C A137C | ≤ -4.2
U6A C75A G83A C114A | ≤ -4.2
U6A C75G C93U A107G G133U | ≤ -4.2
U6A C93G | -3.92
U6A C96A C129G C132A U148C | ≤ -4.2
U6A C96U A97U C103A C132U | ≤ -4.2
U6A G50C A64G G84U G88A | ≤ -4.2
U6A G50U A60U C75U C95U | ≤ -4.2
U6A G58A C76U G84U C87G | ≤ -4.2
U6A G58C G94A | -0.942
U6A G59A C69G C75U A98U C99A | ≤ -4.2

Variant | polymerase ribozyme fitness (log ratio)
U6A G62A C76A A91U A121U C123A A138C G141U | ≤ -4.2
U6A G70U U78A C87U | ≤ -4.2
U6A G71A C87G G152U | ≤ -4.2
U6A G83C | -0.841
U6A G83C A89U G136U A137G | -3.78
U6A G86U | -1.41
U6A G86U G94A A98G | ≤ -4.2
U6A U7A A29C C43A G50C C57A C108G U134G | ≤ -4.2
U6A U9A C87A A107G U144A | ≤ -4.2
U6A U9C C38U G86C U102G | ≤ -4.2
U6A U13A A40C C85A C93G G94C C123U | ≤ -4.2
U6A U13A C35G A110G A142G | -3.55
U6A U13C A24C C51U A91G C108G U144A | ≤ -4.2
U6A U15C A23U G50C G59A A142C | ≤ -4.2
U6A U44A C87A A89U C96U | ≤ -4.2
U6A U44G A47G G71A | ≤ -4.2
U6A U45A C51U G88U A115G U146G | ≤ -4.2
U6A U53A G65C G83A C93U U139G | ≤ -4.2
U6A U53A G86A A91C G128C | ≤ -4.2
U6A U55G U61A C131U C132G | ≤ -4.2
U6A U55G U139A | ≤ -4.2
U6A U56G G62A U77G C99G G100U U139C | ≤ -4.2
U6C A12G C43U A52G A73C A91U G141C | ≤ -4.2
U6C A16G C35U A91U | ≤ -4.2

Variant | polymerase ribozyme fitness (log ratio)
U6C A16U A24C A40G G50A C87G G100U A120C U135G G136U | ≤ -4.2
U6C A16U G42C G70C G92C U146A | ≤ -4.2
U6C A17C G50A C75G A89G G92C | ≤ -4.2
U6C A19U G25C G50A C54G U56A C76U C93A G100A A106U G140A A147G | ≤ -4.2
U6C A20U C27G C57A A60U G112C C116U G140U | ≤ -4.2
U6C A20U C75A C87A A121C U148G | ≤ -4.2
U6C A20U U53G G59U C69U C118A | ≤ -4.2
U6C A21U A26U U44A A49C C95U A98U C123A G141C | ≤ -4.2
U6C A24C G71A C95U | ≤ -4.2
U6C A24G A40U G62A A142G | ≤ -4.2
U6C A24G U31A A52C C87U U90G G92U C93A | ≤ -4.2
U6C A24U C35G G50A C93U G94A C99U A107U G117A A147C | ≤ -4.2
U6C A24U G74C G81A C87A U146G | ≤ -4.2
U6C A26C C36G G59C C85U A91C C125U C132U G143U | ≤ -4.2
U6C A29U A41C G42U G59C C85U G100U A107G G124A | ≤ -4.2
U6C A37C A41C A91U A142C | ≤ -4.2
U6C A40G A49G G83U G88A U101G | ≤ -4.2
U6C A40U A47C G92A A107G C116G | ≤ -4.2
U6C A47C G48A U134G | ≤ -4.2
U6C A49G G50U A73C G83C C93G C108U | ≤ -4.2
U6C A66C C72A U77C U82A U111C G126A | ≤ -4.2
U6C A107U C116U U146A | ≤ -4.2
U6C C8A C14A A20U A28U A49G C95U C114U A119U G141U U151G | ≤ -4.2
U6C C8A G67A G117A U130C C132G | ≤ -4.2

Variant | polymerase ribozyme fitness (log ratio)
U6C C8A U31A C95U A107U U127G U134G | ≤ -4.2
U6C C8G A23U U31C G50C C75A G84C U151G | ≤ -4.2
U6C C8U A40C G88U C99U U139C G141A C149G | ≤ -4.2
U6C C8U G11A A20U G48U G83A C99U U135A G143U | ≤ -4.2
U6C C10A A41U G48A G83C U111C | ≤ -4.2
U6C C10G A37G C51U G94A G141A | ≤ -4.2
U6C C10U A20U G84A C85A | ≤ -4.2
U6C C10U A49U A121U | ≤ -4.2
U6C C14U C38U U61A U145C | -4.04
U6C C18G C93A A110U | ≤ -4.2
U6C C18U G59C A66U A73C U101G U139C U144A | ≤ -4.2
U6C C27A A40G A66U C95A | ≤ -4.2
U6C C35A U55A G86A C125A G133A A150C | ≤ -4.2
U6C C35A U56A C72U A91C | ≤ -4.2
U6C C36A C95U A98G A150U | ≤ -4.2
U6C C36U U61A A98U G133U G140A | ≤ -4.2
U6C C38A A47U C95U G143C | ≤ -4.2
U6C C38U C57U G59C C95U A107G C114G | ≤ -4.2
U6C C43A A49U C76U A91U G94A C114U A115U A119U | ≤ -4.2
U6C C54U G59A A60U C95U G128U U130G | ≤ -4.2
U6C C57U G83U G84U A121U | -3.18
U6C C85G | -2.95
U6C C87U C93U U111G A115G C132G G141C | ≤ -4.2
